# Measurements as given in PubChem BioAssay AID1345082 (National Center for Advancing Translational Sciences (NCATS), 2018).
# Among all 94,000 compounds or so, about 4,000 (4.3%) were called active. The shares of active, inactive and inconclusive entries below differ from those in the screen. Calls come from the whole dose curve; as a rule, active = well fitted inhibition curve with a large enough effect; inconclusive = small, poorly fitted or top-dose-only effect; inactive = no such curve, though single readings can be large or run the other way. Potencies of inconclusive entries are doubtful fits and often do not repeat.
# Assay: Cytotoxic Profiling in NIH 3T3 Cell Line of Diverse Libraries Using Quantitative High-Throughput Screening; note: nearly all actives have a fitted effect of over 55% in size
# Settings: NIH 3T3 viability, CellTiter-Glo ATP luminescence, 48-72 h; activity change, negative = cytotoxicity: at 96.7 µM (top of the series) unless noted; series mostly up to 96.7 µM
# How it was run: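 Viability of NIH 3T3 cells after 48 or 72 hr compound treatment at 37 °C was assessed by CellTiter-Glo, with luminescence imaged following a 10 min room-temperature step.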
# % is set by controls: 0 for no effect and ±100 for the full control effect; potency is the fitted concentration of half-maximal effect; tags give direction and shape of the fitted curve.
SMILES,"activity change, negative = cytotoxicity",Potency,outcome
O=c1[nH]nc(CNCC2(O)CCCNC2)c2ccccc12 (centres undefined),inactive: -17.9%,,
O=C(NCc1ccc(C(F)(F)F)cc1)C1CCCN(Cc2cccc(-c3ccsc3)c2)C1 (centres undefined),,active: 35.5 µM,
CCCNC(=O)NC[C@@H]1C=C(C)[C@H](Cc2nc3ccc(OC)cc3[nH]2)C[C@H]1C(C)C,,active: 39.8 µM,
O=C(c1ccccc1F)N1CCN(c2nccc(Nc3ccccc3Cl)n2)CC1,,"inconclusive: 39.8 µM [inhibitor, partial curve]",
CN(C)c1ccc(CN2CCn3c(nn(-c4ccc([N+](=O)[O-])cc4)c3=O)C2)cc1,,"inconclusive: 39.8 µM [inhibitor, partial curve]",
O=C(c1ccccc1)N1CCC(N2Cc3ccccc3C2=O)CC1,inactive: -9.72%,,
O=C(NCc1cccs1)C1CN(c2cccc(Cl)c2)C(=O)N1 (centres undefined),,"inconclusive: 70.8 µM [inhibitor, partial curve, poor fit]",
COCCNC(=O)c1nc(-c2ccc(OC)cc2)c2ccccn12,,"inconclusive: 50.1 µM [inhibitor, partial curve, poor fit]",
CN(Cc1ccccc1)Cc1cc(C[C@@H]2C[C@H](NC(=O)C3CCC3)C2(C)C)no1,,"inconclusive: 12.6 µM [inhibitor, full curve]",
Cc1ccc(CNC(=O)CCc2ccnc(N3CCCC3)c2)cc1,inactive: 1.27%,,
O=C(C1CCN(c2nccc(Nc3ccccc3Cl)n2)CC1)N1CCC(c2ncccn2)CC1,,"inconclusive: 44.7 µM [inhibitor, partial curve, poor fit]",
COc1ccc(-c2noc([C@@H]3C[C@H](NCc4ccc(N(C)C)cc4)CN3C)n2)cc1,,active: 50.1 µM,
CCc1cccc(NC(=O)C2Cn3cccc3C(=O)N2C)c1 (centres undefined),inactive: -19.6%,,
O=C1NC2(CCN(C(=O)c3ccccc3)C2)COc2ccccc21 (centres undefined),,"inconclusive: 89.1 µM [inhibitor, partial curve, poor fit]",
CN1CCC(Cn2ccc3c(N4CCOCC4)nc(-c4cccc(C(N)=O)c4)cc32)CC1,,active: 100 µM,
CCC(=O)N1CCC(N(C(=O)COC)C2CCOCC2)CC1,,"inconclusive: 50.1 µM [inhibitor, partial curve, poor fit]",
c1csc(CN2CC[C@H](c3nc4ccccc4[nH]3)C2)c1,,active: 100 µM,
COc1cccc(CN2CCC3(CC2)c2[nH]c4ccccc4c2CCN3C)c1,,active: 22.4 µM,
CCC(=O)N1CCN(c2nc3c(s2)CC(C(=O)Nc2ccc(F)cc2F)CC3)CC1 (centres undefined),,"inconclusive: 15.8 µM [inhibitor, full curve, poor fit]",
Cc1nc2c(c(-c3ccc(O)cc3)n1)CN(Cc1ccc(C(F)(F)F)cc1)CCC2,,"inconclusive: 44.7 µM [inhibitor, partial curve, poor fit]",
CCCNC(=O)N1CCC2(CCC2NC(=O)COC)CC1 (centres undefined),inactive: -0.661%,,
O=C(Nc1ccc(F)cc1F)N1CCC2(CC1)SCC(=O)N2c1ccc(Cl)cc1,,"inconclusive: 39.8 µM [inhibitor, partial curve, poor fit]",
CN(CCc1cn[nH]c1)c1ccc(-c2nc(-c3ccccc3F)no2)cn1,,"inconclusive: 44.7 µM [inhibitor, partial curve, poor fit]",

SMILES,"activity change, negative = cytotoxicity",Potency,outcome
Cc1ccsc1-c1[nH]nc2ncc(-c3ccc(F)cc3)nc12,,"inconclusive: 56.2 µM [inhibitor, partial curve, poor fit]",
Fc1ccc(-c2cnc([C@@H]3COCCN3Cc3cnc4ccccc4c3)[nH]2)cc1,,"inconclusive: 56.2 µM [inhibitor, partial curve, poor fit]",
COc1cccc(OCC(=O)c2ccc3c(c2)N(CCCC(=O)NCC2CCCO2)C(=O)CO3)c1 (centres undefined),,"inconclusive: 50.1 µM [inhibitor, partial curve, poor fit]",
CN(CCc1ccccc1)C(=O)c1cc(-c2ccc[nH]2)n[nH]1,inactive: -29.1%,,
COc1ccccc1-c1[nH]nc2ncc(C(=O)NCCN3CCOCC3)nc12,,"inconclusive: 89.1 µM [inhibitor, partial curve, poor fit]",
COc1cccc(N2CCN(c3nc(C(=O)NCc4cccc(C)c4)cs3)CC2)c1,,"inconclusive: 35.5 µM [inhibitor, partial curve]",
N#CC1CCN(C(=O)c2nc(-c3ccc(Cl)cc3Cl)c3ccccn23)CC1,,"inconclusive: 56.2 µM [inhibitor, partial curve, poor fit]",
O=C(CCc1nc2ccccc2s1)NCC1Cn2cccc2CN1Cc1ccccc1 (centres undefined),,"inconclusive: 70.8 µM [inhibitor, single point]",
NC(=O)c1cccnc1N1CCC2(CC1)CC(C(=O)O)N(C(=O)C1CC1)C2 (centres undefined),,,inactive
COc1ccc(NC(=O)c2nnn3c2COC(c2ccc(F)cc2)C3)cc1Cl (centres undefined),inactive: -19.6%,,
CCN(CC)CCn1cnc(-c2ccccc2)c1-c1cnc(C)s1,,"inconclusive: 39.8 µM [inhibitor, single point]",
O=C(c1ccc(F)cc1)N1CCC2(CC1)CCN(CCc1ccccc1)c1ccccc1O2,,"inconclusive: 44.7 µM [inhibitor, partial curve, poor fit]",
O=C1CC(c2n[nH]c(C3CCOCC3)n2)CN1Cc1cccnc1 (centres undefined),inactive: -5.72%,,
Cn1ncc2c(C(=O)N3CCN(Cc4ccccc4)CC3)cc(-c3cccc(F)c3)nc21,,"inconclusive: 39.8 µM [inhibitor, partial curve]",
CC(C)[C@@H]1C[C@@H]2C[C@@H](Nc3ccccn3)C[C@]2(c2ccccc2)CO1,,"inconclusive: 50.1 µM [inhibitor, partial curve, poor fit]",
Cc1ccc(NC(=O)CC2CCCN(c3cn[nH]c(=O)c3)C2)cc1C (centres undefined),,"inconclusive: 50.1 µM [inhibitor, partial curve, poor fit]",
O=c1[nH]c(N2CCOCC2)nc2c1CCN(Cc1ccc(Cl)cc1F)CC2,,"inconclusive: 44.7 µM [inhibitor, partial curve, poor fit]",
CCC(C)Oc1ccccc1CNc1ncnc2c1c(C)nn2C (centres undefined),,"inconclusive: 50.1 µM [inhibitor, partial curve, poor fit]",
CN1CC2(CCN(C(=O)CC3CCCC3)CC2)CC1CN1CCOCC1 (centres undefined),inactive: -22.7%,,
CCOc1ccc(CC(=O)Nc2cccc(-c3nnc4n3CCCC4)c2)cc1,,"inconclusive: 50.1 µM [inhibitor, partial curve, poor fit]",
CC1CCCC(C)N1C(=O)c1ccc2nc(-c3cccnc3)oc2c1 (centres undefined),inactive: -12.3% [at 138 µM],,
Cc1cc2nc3n(c(=O)c2n1CC(=O)Nc1cccc(C(F)(F)F)c1)CCCC3,inactive: -24.2%,,
Cc1ccc(C(=O)N2CCN(c3cc(-c4cccs4)[nH]n3)CC2)c(C)c1,,active: 7.94 µM,

SMILES,"activity change, negative = cytotoxicity",Potency,outcome
COc1ccc(-c2cc3nc4c(c(=O)n3[nH]2)CN(C(=O)CCCc2nc3ccccc3s2)CC4)cc1,inactive: -10.2%,,
O=C(CC1CCCC1)N1CC[C@@H]2COCCN(Cc3ccccc3)[C@@H]2C1,inactive: -28.1%,,
O=C(NCc1ccc(F)cc1)C1CCN(C(=O)c2ncn3c2COC(c2ccccc2)C3)CC1 (centres undefined),inactive: -12.8%,,
COc1ccc(CC(=O)N[C@@H]2CN(c3ccccn3)C[C@H]2CN(C)C)cc1,inactive: 0.84%,,
CC(C)CNC(=O)c1cc(C2CC2)nc2c1c(C1CCCN1)nn2C (centres undefined),,,inactive
CNc1cc(C2CC(NC(=O)COc3ccc(Cl)cc3C)C2)nc(N)n1 (centres undefined),,active: 39.8 µM,
COc1ccc(NC(=O)CCc2ccnc(N3CCCC3)c2)c(C)c1,,"inconclusive: 50.1 µM [inhibitor, partial curve, poor fit]",
Cc1cc(NC(=O)CN2C(=O)NC(c3ccc(Cl)cc3)C3=C2COC3=O)ccc1Br (centres undefined),,active: 25.1 µM,
O=C(c1ccc(F)cc1)N1CCC(C(=O)N2CCC(N3Cc4ccccc4C3=O)CC2)CC1,,"inconclusive: 50.1 µM [inhibitor, partial curve, poor fit]",
CC(C)CCN1CCC(C2CCN(Cc3cccnc3)CC2)C1 (centres undefined),,"inconclusive: 50.1 µM [inhibitor, partial curve, poor fit]",
O=C(NCc1cccs1)c1cccc2c1CCN2C(=O)c1ccc(F)cc1,inactive: -26.5%,,
CN(Cc1cccc(C(F)(F)F)c1)C(=O)Nc1ccccc1,,"inconclusive: 14.1 µM [inhibitor, full curve]",
Cc1cnc(-c2ccncc2)n1CCNC(=O)CCC1CCCC1,inactive: -15.8%,,
CCCN1CCN(C(=O)c2ccc3c(c2)n(Cc2ccc(F)cc2)c(=O)c2ccnn23)CC1,inactive: -21.7%,,
O=C(C1CCCN1[S+](=O)([O-])c1ccccc1)N1CCC(N2CCCC2=O)CC1 (centres undefined),inactive: -17.3%,,
O=C(NCc1ccccc1)C1CCCN(c2nccc(Nc3ccccc3F)n2)C1 (centres undefined),,active: 31.6 µM,
Cc1nc(N2CCC(NC(=O)CC3CCCCC3)CC2)cc(C(F)(F)F)n1,inactive: -35.6%,,
CN(CCc1ccccc1)Cc1cc(C(=O)N2CCOc3ccccc3C2)no1,,"inconclusive: 50.1 µM [inhibitor, partial curve, poor fit]",
O=C([C@@H]1CCCN1c1nccc(Nc2ccccc2Cl)n1)N1CCOCC1,,"inconclusive: 56.2 µM [inhibitor, partial curve, poor fit]",
Cc1cnc(-c2cccnc2)n1C1CCCN(C(=O)C2(c3ccccc3)CC2)C1 (centres undefined),inactive: -21.9%,,
Fc1ccc(CN2CCC(Oc3ccccc3-c3nc(-c4cnccn4)no3)C2)cc1F (centres undefined),,"inconclusive: 44.7 µM [inhibitor, partial curve, poor fit]",
O=C(NCc1ccccc1F)c1nc2sccn2c1-c1cccnc1,,"inconclusive: 112 µM [inhibitor, partial curve, poor fit]",
Cc1ccc(C(=O)N2CCCN(C)c3ccccc32)cc1C,,"inconclusive: 44.7 µM [inhibitor, partial curve, poor fit]",
